Laboratory results as given in the supplement of paper PMC8728848.
The other results are listed elsewhere or left out.

Columns and labels:
Test in all cases: glycan array binding signal (z-score within array); higher = stronger binding
Details in all cases: glycan notation: IUPAC condensed, linker removed
[1] = biological target: Fuc(a1-3)[Gal(b1-4)]GlcNAc(b1-3)Gal(b1-4)[Fuc(a1-3)]GlcNAc
In short: (§1)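 The binding signal is a Z-score computed within each array and averaged over linkers. Arrays of the same protein sequence at different concentrations or buffers were also averaged together. Data originate from 3228 arrays in the Consortium for Functional Glycomics database, kept only where the protein sequence was available.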

[2] = biological target: Fuc(a1-3)[Gal(b1-4)]GlcNAc(b1-3)Gal(b1-4)[Fuc(a1-3)]GlcNAc(b1-3)Gal(b1-4)[Fuc(a1-3)]GlcNAc
In short: as §1

[3] = biological target: Fuc(a1-3)[Gal(b1-4)]GlcNAc(b1-3)GalNAc
In short: as §1

[4] = biological target: Fuc(a1-3)[Gal(b1-4)]GlcNAc(b1-6)GalNAc
In short: as §1

[5] = biological target: Fuc(a1-3)[Gal(b1-4)]GlcNAc(b1-6)[Gal(b1-3)GlcNAc(b1-3)]Gal(b1-4)Glc
In short: as §1

[6] = biological target: Fuc(a1-3)[Gal(b1-4)]GlcNAc6S
In short: as §1

[7] = biological target: Fuc(a1-3)[Gal3S(b1-4)]Glc
In short: as §1

[8] = biological target: Fuc(a1-3)[Gal3S(b1-4)]GlcNAc
In short: as §1

[9] = biological target: Fuc(a1-3)[Gal3S(b1-4)]GlcNAc6S
In short: as §1

[10] = biological target: Fuc(a1-3)[GalNAc(b1-4)]GlcNAc
In short: as §1

[11] = biological target: Fuc(a1-3)[GalNAc(b1-4)]GlcNAc6S
In short: as §1

Fuc(a1-4)GlcNAc = biological target: Fuc(a1-4)GlcNAc
In short: as §1

Fuc(b1-3)GlcNAc = biological target: Fuc(b1-3)GlcNAc
In short: as §1

Gal(a1-2)Gal = biological target: Gal(a1-2)Gal
In short: as §1

Gal(a1-3)Gal = biological target: Gal(a1-3)Gal
In short: as §1

Gal(a1-3)Gal(b1-3)GlcNAc = biological target: Gal(a1-3)Gal(b1-3)GlcNAc
In short: as §1

[12] = biological target: Gal(a1-3)Gal(b1-3)GlcNAc(b1-2)Man
In short: as §1

[13] = biological target: Gal(a1-3)Gal(b1-3)GlcNAc(b1-2)Man(a1-3)[Gal(a1-3)Gal(b1-3)GlcNAc(b1-2)Man(a1-6)]Man(b1-4)GlcNAc(b1-4)GlcNAc
In short: as §1

[14] = biological target: Gal(a1-3)Gal(b1-3)GlcNAc(b1-3)GalNAc
In short: as §1

[15] = biological target: Gal(a1-3)Gal(b1-3)GlcNAc(b1-6)GalNAc
In short: as §1

[16] = biological target: Gal(a1-3)Gal(b1-3)[Fuc(a1-4)]GlcNAc(b1-2)Man(a1-3)[Gal(a1-3)Gal(b1-3)[Fuc(a1-4)]GlcNAc(b1-2)Man(a1-6)]Man(b1-4)GlcNAc(b1-4)GlcNAc
In short: as §1

Gal(a1-3)Gal(b1-4)Glc = biological target: Gal(a1-3)Gal(b1-4)Glc
In short: as §1

Gal(a1-3)Gal(b1-4)GlcNAc = biological target: Gal(a1-3)Gal(b1-4)GlcNAc
In short: as §1

[17] = biological target: Gal(a1-3)Gal(b1-4)GlcNAc(b1-2)Man
In short: as §1

[18] = biological target: Gal(a1-3)Gal(b1-4)GlcNAc(b1-2)Man(a1-3)[Gal(a1-3)Gal(b1-4)GlcNAc(b1-2)Man(a1-6)]Man(b1-4)GlcNAc(b1-4)GlcNAc
In short: as §1

[19] = biological target: Gal(a1-3)Gal(b1-4)GlcNAc(b1-3)GalNAc
In short: as §1

[20] = biological target: Gal(a1-3)Gal(b1-4)GlcNAc(b1-6)GalNAc
In short: as §1

[21] = biological target: Gal(a1-3)Gal(b1-4)[Fuc(a1-3)]GlcNAc
In short: as §1

[22] = biological target: Gal(a1-3)Gal(b1-4)[Fuc(a1-3)]GlcNAc(b1-2)Man(a1-3)[Gal(a1-3)Gal(b1-4)[Fuc(a1-3)]GlcNAc(b1-2)Man(a1-6)]Man(b1-4)GlcNAc(b1-4)GlcNAc
In short: as §1

Gal(a1-3)GalNAc = biological target: Gal(a1-3)GalNAc
In short: as §1

[23] = biological target: Gal(a1-3)[Gal(a1-4)]Gal(b1-4)GlcNAc
In short: as §1

[24] = biological target: Gal(a1-4)Gal(b1-3)GlcNAc(b1-2)Man(a1-3)[Gal(a1-4)Gal(b1-3)GlcNAc(b1-2)Man(a1-6)]Man(b1-4)GlcNAc(b1-4)GlcNAc
In short: as §1

Gal(a1-4)Gal(b1-4)Glc = biological target: Gal(a1-4)Gal(b1-4)Glc
In short: as §1

Gal(a1-4)Gal(b1-4)GlcNAc = biological target: Gal(a1-4)Gal(b1-4)GlcNAc
In short: as §1

[25] = biological target: Gal(a1-4)Gal(b1-4)GlcNAc(b1-2)Man(a1-3)[Gal(a1-4)Gal(b1-4)GlcNAc(b1-2)Man(a1-6)]Man(b1-4)GlcNAc(b1-4)GlcNAc
In short: as §1

[26] = biological target: Gal(a1-4)Gal(b1-4)GlcNAc(b1-3)Gal(b1-4)Glc
In short: as §1

Gal(a1-4)GlcNAc = biological target: Gal(a1-4)GlcNAc
In short: as §1

Gal(a1-6)Glc = biological target: Gal(a1-6)Glc
In short: as §1

B1: PX9937J-pdi-523-26-523 (Parabacteroides distasonis) (protein)
chain: EPVSSISDANYWKSPDLFKAFNIGLHGLLRSQSSYNIFVLGEPRSDIYGDQPFGGEATQGVERFSYNTINAEFTGISNFANFYTTLNQINLMIRRTNETDLLGEAEKNYYLGQAYGLRAYIYFHLLRSWGDVIITTEPTLGSELDISHLDKAASPASEVMDLIKKDIDASEKAFGGDYSYKQGKCYWSKPATLMLKGEVYLWSGRQMGGGTGDYTVAKTALQDLQQNGNLKLQEKFTDVFSFNNKENSEMIFALHSGKEDDFMMWRDYNWRNNMVPQREYMAGYCDETGTPFLEIPGYNLQGLMRYQVKKDHYLKSFREGDTRLKGTLKAVYKKHEDGTLEYIAPIQYKFQGTTLEGSNERSWYDDYPIYRYADALLLLAEAKALLGEDPSTEINAVRERAYGSEYFNAHKNEVAYPNDKGSFYNDNPFEAGDENVMEAILKERLREFFFEGKRWYDLRRFGKDYVLKYTTAQESRLLWPINEGALTNNPALKQTPGY
With B1 the “glycan array binding signal (z-score)” value [1] was -0.212, the “glycan array binding signal (z-score)” value [2] was -0.256 and the “glycan array binding signal (z-score)” value [3] was -0.643. The “glycan array binding signal (z-score)” value [4] was -0.093, the “glycan array binding signal (z-score)” value [5] was -0.503 and the “glycan array binding signal (z-score)” value [6] was 5.71. For the same binder, the “glycan array binding signal (z-score)” value [7] was 0.216, the “glycan array binding signal (z-score)” value [8] was -0.156 and the “glycan array binding signal (z-score)” value [9] was -0.203. For the same binder, the “glycan array binding signal (z-score)” value [10] was 0.207, the “glycan array binding signal (z-score)” value [11] was 0.629 and the “glycan array binding signal (z-score)” value (Fuc(a1-4)GlcNAc) was -0.247. For the same binder, the “glycan array binding signal (z-score)” value (Fuc(b1-3)GlcNAc) was 0.101, the “glycan array binding signal (z-score)” value (Gal(a1-2)Gal) was -0.363 and the “glycan array binding signal (z-score)” value (Gal(a1-3)Gal) was -0.318. The “glycan array binding signal (z-score)” value (Gal(a1-3)Gal(b1-3)GlcNAc) was -0.039, the “glycan array binding signal (z-score)” value [12] was -0.414 and the “glycan array binding signal (z-score)” value [13] was 0.98. The “glycan array binding signal (z-score)” value [14] was -0.115, the “glycan array binding signal (z-score)” value [15] was -0.482 and the “glycan array binding signal (z-score)” value [16] was -0.273. The “glycan array binding signal (z-score)” value (Gal(a1-3)Gal(b1-4)Glc) was 1.7, the “glycan array binding signal (z-score)” value (Gal(a1-3)Gal(b1-4)GlcNAc) was -0.594 and the “glycan array binding signal (z-score)” value [17] was -0.485. The “glycan array binding signal (z-score)” value [18] was 0.332, the “glycan array binding signal (z-score)” value [19] was 0.255 and the “glycan array binding signal (z-score)” value [20] was -0.49. For the same binder, the “glycan array binding signal (z-score)” value [21] was -0.333, the “glycan array binding signal (z-score)” value [22] was -0.105 and the “glycan array binding signal (z-score)” value (Gal(a1-3)GalNAc) was -0.647. The “glycan array binding signal (z-score)” value [23] was 1.62, the “glycan array binding signal (z-score)” value [24] was 1.16 and the “glycan array binding signal (z-score)” value (Gal(a1-4)Gal(b1-4)Glc) was 0.596. For the same binder, the “glycan array binding signal (z-score)” value (Gal(a1-4)Gal(b1-4)GlcNAc) was 0.111, the “glycan array binding signal (z-score)” value [25] was 2.9 and the “glycan array binding signal (z-score)” value [26] was -0.512. For the same binder, the “glycan array binding signal (z-score)” value (Gal(a1-4)GlcNAc) was -0.673 and the “glycan array binding signal (z-score)” value (Gal(a1-6)Glc) was -0.309.
